Reference: PubChem BioAssay AID624296 (National Center for Advancing Translational Sciences (NCATS), 2012)
Among all 350,000 compounds or so, about 9,900 (2.8%) were called active. The inconclusive results got no clear call from the source; some entries with a clear call stand among them for comparison. Calls follow the shape of the dose curve; as a rule, active = well fitted activation curve with a large enough effect; inconclusive = small, poorly fitted or top-dose-only effect; inactive = no such curve, though single readings can be large or run the other way. Potencies of inconclusive entries are left out as doubtful fits.

test: A quantitative high throughput screen for small molecules that induce DNA re-replication in MCF 10a normal breast cells.; also: nearly all actives have a fitted effect of over 50% in size; as to activity, positive = re-replication: % of control where 0% means no effect; conditions: MCF 10A DNA re-replication, Hoechst nuclear intensity, 48 h; activity, positive = re-replication: at 46.1 µM (top of the series)
Potency is read from the fitted curve at half-maximal effect; tags tell the direction and shape of the fitted curve.

SMILES | Potency | activity, positive = re-replication
CCOc1ccccc1NC(=O)CCc1nnc2ccc(N3CCC4(CC3)OCCO4)nn12 | inconclusive [activator, full curve, poor fit] | –
CC(=O)c1c(C)[nH]c(C(=O)COc2ccc3ccc(=O)oc3c2)c1C | inactive | –
C=CCOC(=O)C1=C(C)NC(C)=C(C(=O)OCC=C)C1c1cn(-c2ccccc2)nc1-c1ccco1 | inconclusive [activator, single point] | inconclusive: -83.7% [activator]
Oc1ccccc1-c1nnc(-c2ccc(C(F)(F)F)cc2)o1 | inconclusive [activator, single point] | –
CS(=O)(=O)c1nc(-c2ccccc2)cc(C(F)(F)F)n1 | active: 2.59 µM | –
COc1ccc(/C=N/NC(=O)c2cc3c(ccc4ccccc43)o2)cc1OC | active: 16.4 µM | –
O=C(NCCc1ccccc1)c1ncn[nH]1 | inactive | –
Cc1nc(-c2cn[nH]c2-c2ccc(O)cc2O)cs1 | inconclusive [activator, single point] | –
O=C(N/N=C/C=C\c1cccc([N+](=O)[O-])c1)c1cccnc1 | inactive | –
O=C(c1ccccc1)c1ccc(OCC(O)CNCc2cccc(Cl)c2)cc1 (configuration not stated) | active: 20.6 µM | –
COC(=O)Nc1ccc(S(=O)(=O)N2CCCCCC2)cc1 | inconclusive [activator, single point] | –
CCCn1nc(NC(=O)c2cccs2)c2cc3cc(C)ccc3nc21 | active: 18.4 µM | –
O=c1[nH]c(/C=C/c2ccccc2Cl)c([N+](=O)[O-])c(=O)[nH]1 | inconclusive [activator, single point] | –
CC(Oc1ccc(Br)cc1)C(=O)Nc1cc(Cl)ccc1N1CCN(C)CC1 (configuration not stated) | inconclusive [activator, full curve, poor fit] | –
NC(=O)CSc1nc2cc(Cl)ccc2c(=O)n1C1CCCCC1 | inconclusive [activator, single point] | –
Cc1cc(NC(=O)c2cc(-c3cccs3)nc3ccccc23)no1 | inconclusive [activator, single point] | –
Cn1c2ccccc2c2nnc(SCC(=O)Nc3cccc(C(=O)O)c3)nc21 | inactive | –
CCSc1nnc(NC(=O)C2Cc3ccccc3CN2C(=O)c2ccco2)s1 (configuration not stated) | inconclusive [activator, partial curve, poor fit] | –
O=C(c1ccc(F)cc1F)N1CCN(c2n[nH]c(=O)[nH]c2=O)CC1 | inactive | –
OC(COc1ccc(Cl)cc1Cl)CN1CCc2ccccc2C1 (configuration not stated) | inconclusive [activator, partial curve, poor fit] | –
Cc1ccc(S(=O)(=O)N2CCOCC2)cc1C(=O)Nc1nc(-c2cccnc2)cs1 | inactive | –
CN(C)c1ccc(Cc2cc3c(O)ccc(O)c3cc(Cc3ccc(N(C)C)cc3)c2=O)cc1 | inconclusive [activator, single point] | –
O=C(CCSc1ccccn1)c1ccccc1 | inconclusive [activator, single point] | –
Cc1ccc(C(=O)Nc2ccc(C(=O)N3CCCCC3)cc2)cc1 | inactive | –

SMILES | Potency | activity, positive = re-replication
Cc1cccc(CN2CCN(C(C)C(=O)NC(C)c3ccccc3)CC2)c1 (configuration not stated) | inactive | –
O=C(CSc1ccsc1[N+](=O)[O-])N1CCN(c2ccccc2)CC1 | inactive | –
CCOC(=O)CSc1nnc(CSc2nc3sc4c(c3c(=O)[nH]2)CCC4)n1-c1ccccc1 | inactive | –
CCOC(=O)c1c(C)[nH]c(C(=O)C(C)Sc2ccc(Cl)cc2)c1C (configuration not stated) | inconclusive [activator, single point] | –
CCOc1ccc(NC(=S)NC(=O)/C=C/c2ccc(C)cc2)c([N+](=O)[O-])c1 | inconclusive [activator, single point] | –
O=C(NCC1CCN(Cc2cccc(Cl)c2)CC1)Nc1ccccc1Cl | inactive | –
O=C(Nc1ccc(NC(=O)c2cccs2)c(Cl)c1)c1ccco1 | inactive | –
COC(=O)C1=CN(Cc2ccc(C)cc2)C=C(C(=O)OC)C1c1cc(OC)c(OC)c(OC)c1 | inconclusive [activator, single point] | –
CC1CCC(=C(C#N)c2nc(-c3cc4ccccc4oc3=O)cs2)CC1 (configuration not stated) | inactive | –
CCc1c(C)nc(N2CCN(c3ccccc3F)CC2)[nH]c1=O | inactive | –
CCOC(=O)O[C@]1(C(=O)OCCl)CC[C@@H]2[C@H]3CCC4=CC(=O)C=C[C@]4(C)[C@@H]3[C@@H](O)C[C@@]21C | inactive | –
Cc1ccc(Cn2c(NC(=O)c3ccco3)nc3ccccc32)cc1 | inconclusive [activator, single point] | –
Cc1ccc(SCC(=O)Nc2ccc(-c3nnc(-c4ccco4)o3)cc2)cc1 | inconclusive [activator, partial curve, poor fit] | –
COc1ccc(C2c3[nH]c4ccccc4c3C[C@H]3C(=O)N(C)CC(=O)N23)cc1OC (some centres not stated) | inconclusive [activator, single point] | –
CCOc1ccccc1NC(=O)c1cccc2ccccc12 | inconclusive [activator, single point] | –
Cc1ccc(C(c2nnnn2C2CCCC2)N2CCc3ccccc32)cc1 (configuration not stated) | inconclusive [activator, partial curve, poor fit] | –
COc1ccc(CNC(=O)c2ccc[nH]2)cc1Cl | inactive | –
Cc1ccc(C)c(S(=O)(=O)NCCCc2ccccc2)c1 | inactive | –
O=C(CN1CCOCC1)Nc1ccccc1Sc1ccc(Cl)cc1 | inconclusive [activator, single point] | –
CC1CCCCC1NC(=O)C1CCC(CNS(=O)(=O)c2cccc3cccnc23)CC1 (configuration not stated) | inconclusive [activator, partial curve, poor fit] | –
CC(C)(C)c1ccc(C(=O)N2CCC(C(=O)NC3CCCCCC3)CC2)cc1 | inconclusive [activator, single point] | –
Cc1nc(SCC(=O)NCC(F)(F)F)c2c(-c3cccs3)csc2n1 | inconclusive [activator, single point] | –
CCOCCCNC(=O)C(c1ccc(OC)cc1)N(Cc1cccs1)C(=O)c1ccccc1O (configuration not stated) | inactive | –
O=C(NCc1ccccc1C(F)(F)F)c1cccc2c1C(=O)c1ccc(N3CCCCC3)cc1S2(=O)=O | inactive | –

SMILES | Potency | activity, positive = re-replication
Cc1nc2cc(-c3ccc(Cl)cc3)nn2c(NCCN(C)C)c1C | inconclusive [activator, single point] | –
O=C(CN1CCN(S(=O)(=O)c2ccccc2)CC1)Nc1ccc2c(c1)CCC2 | inactive | –
O=C(COc1ccc(S(=O)(=O)N2CCCCC2)cc1)NCC1CCCO1 (configuration not stated) | inactive | –
Cc1ccc(NC2=NCC(Cc3ccc(Br)cc3)S2)cc1 (configuration not stated) | inconclusive [activator, single point] | –
O=C(NC1CCCC1)c1ccc2nc(-c3ccco3)c(-c3ccco3)nc2c1 | inconclusive [activator, single point] | –
Cc1ccc(-n2nc3cc(C)c(N)cc3n2)cc1 | active: 18.4 µM | –
CC(C)(C)NC(=O)CON=C1c2ccccc2-c2ccccc21 | inconclusive [activator, single point] | –
O=C(c1ccccc1F)N1CCCc2ccccc21 | inconclusive [activator, partial curve, poor fit] | –
Cc1cc2n(n1)SC(Nc1cccc3ccccc13)N2 (configuration not stated) | inactive | –
CC1=C(C(=O)OCc2ccccc2)C(c2ccc(N(C)C)cc2)NC(=O)N1 (configuration not stated) | inconclusive [activator, single point] | –
CCn1cc(C(=O)O)c(=O)c2cc(F)c(N3CCN(C(=S)NC(=O)c4ccc(OC)cc4)CC3)cc21 | inactive | –
Cc1oc2c(C)c(O)ccc2c(=O)c1-c1cnn(-c2ccccc2)c1 | inconclusive [activator, single point] | –
CC(C)=C1C(=O)NN(c2ccc(F)c(Cl)c2)C1=O | inconclusive [activator, single point] | –
CCn1cc([N+](=O)[O-])c(C(=O)Nc2ccc(Cn3nc(C)cc3C)cc2)n1 | inactive | –
c1ccc(-c2noc(CC3CCCCC3)n2)nc1 | inconclusive [activator, partial curve, poor fit] | –
Cc1cc2nc(SCCN3CCCC3)[nH]c2cc1C | inconclusive [activator, partial curve, poor fit] | –
O=C(/C=C/c1ccccc1)OCCCN=C1NS(=O)(=O)c2ccccc21 | inactive | –
C=C(C)CNC(=O)c1ccc2nc(Cc3ccc(OC)cc3)oc2c1 | inconclusive [activator, partial curve, poor fit] | –
O=C(Nc1ccc2c(c1)OCO2)C1CCCN(c2nc3ccccc3s2)C1 (configuration not stated) | inconclusive [activator, single point] | –
C/C(CCc1ccc2c(c1)OCO2)=N\NC(=O)c1ccccc1Br | inconclusive [activator, single point] | –
CCSc1ccc([C@@H]2[C@@H]3C(=O)N(CC)C(=O)[C@@H]3[C@]3(C(=O)OC)CCCCN23)cc1OC | inconclusive [activator, partial curve, poor fit] | –
COc1ccccc1/C=C/c1nc(S(=O)(=O)c2ccccc2)c(N2CCC(C(N)=O)CC2)o1 | inconclusive [activator, single point] | –
CSC1=NC(C(Cl)(Cl)Cl)N=C(c2ccccc2)N1 (configuration not stated) | inconclusive [activator, partial curve] | –
